Assay results reported in publication PMC3307728.
Where two headings read alike, the source gives them in different places. These are yes or no findings as the source states them, for the method shown. Binding seen in cells or lysates may run through a third protein. Some results given as binding are weak or reduced against the parent protein; the word gives no strength. For part of these data: Sequences can lack the tags named with a protein.

Sequences of proteins named here, by UniProt entry; tags and fusion partners are left off. A change or cut given only in a name is not applied to a line headed by its entry. Residues count along the entry.
UniProt P12956: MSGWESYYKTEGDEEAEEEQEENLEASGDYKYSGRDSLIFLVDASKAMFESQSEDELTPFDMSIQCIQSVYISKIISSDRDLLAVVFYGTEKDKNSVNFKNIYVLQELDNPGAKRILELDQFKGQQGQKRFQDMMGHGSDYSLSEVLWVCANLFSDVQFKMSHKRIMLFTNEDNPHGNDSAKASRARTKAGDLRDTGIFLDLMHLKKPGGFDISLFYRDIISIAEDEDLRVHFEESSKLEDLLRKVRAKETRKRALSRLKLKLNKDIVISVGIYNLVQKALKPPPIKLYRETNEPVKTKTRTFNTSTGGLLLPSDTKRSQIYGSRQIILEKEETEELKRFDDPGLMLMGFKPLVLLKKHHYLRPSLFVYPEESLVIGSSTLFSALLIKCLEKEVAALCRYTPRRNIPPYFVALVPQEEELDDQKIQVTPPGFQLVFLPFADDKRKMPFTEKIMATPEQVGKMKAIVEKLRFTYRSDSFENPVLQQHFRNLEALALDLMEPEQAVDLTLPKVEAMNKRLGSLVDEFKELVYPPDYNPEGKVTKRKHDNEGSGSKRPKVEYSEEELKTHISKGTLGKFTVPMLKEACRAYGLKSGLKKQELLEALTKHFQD
GST-Ku70 (396–609): residues 396-609 of P12956
GST-Ku70 (550–609): residues 550-609 of P12956
UniProt P13010: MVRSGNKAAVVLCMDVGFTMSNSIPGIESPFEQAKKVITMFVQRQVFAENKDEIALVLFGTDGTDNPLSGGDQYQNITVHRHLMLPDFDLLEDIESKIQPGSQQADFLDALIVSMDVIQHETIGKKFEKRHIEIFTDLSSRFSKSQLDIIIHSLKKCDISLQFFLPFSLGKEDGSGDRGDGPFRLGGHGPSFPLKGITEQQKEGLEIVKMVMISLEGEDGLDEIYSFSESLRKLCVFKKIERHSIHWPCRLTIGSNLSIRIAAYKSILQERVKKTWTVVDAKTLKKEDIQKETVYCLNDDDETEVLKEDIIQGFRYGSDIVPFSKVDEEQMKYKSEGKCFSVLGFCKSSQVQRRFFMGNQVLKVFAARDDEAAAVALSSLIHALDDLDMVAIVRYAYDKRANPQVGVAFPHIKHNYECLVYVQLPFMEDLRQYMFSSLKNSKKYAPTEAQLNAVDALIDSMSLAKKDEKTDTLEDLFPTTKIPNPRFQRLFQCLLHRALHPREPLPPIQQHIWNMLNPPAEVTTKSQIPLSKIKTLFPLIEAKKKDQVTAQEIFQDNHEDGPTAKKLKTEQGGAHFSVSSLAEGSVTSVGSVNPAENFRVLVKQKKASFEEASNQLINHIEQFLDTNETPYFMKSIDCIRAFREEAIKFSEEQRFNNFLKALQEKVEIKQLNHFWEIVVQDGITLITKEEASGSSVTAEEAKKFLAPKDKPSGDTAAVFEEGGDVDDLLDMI
UniProt P78527: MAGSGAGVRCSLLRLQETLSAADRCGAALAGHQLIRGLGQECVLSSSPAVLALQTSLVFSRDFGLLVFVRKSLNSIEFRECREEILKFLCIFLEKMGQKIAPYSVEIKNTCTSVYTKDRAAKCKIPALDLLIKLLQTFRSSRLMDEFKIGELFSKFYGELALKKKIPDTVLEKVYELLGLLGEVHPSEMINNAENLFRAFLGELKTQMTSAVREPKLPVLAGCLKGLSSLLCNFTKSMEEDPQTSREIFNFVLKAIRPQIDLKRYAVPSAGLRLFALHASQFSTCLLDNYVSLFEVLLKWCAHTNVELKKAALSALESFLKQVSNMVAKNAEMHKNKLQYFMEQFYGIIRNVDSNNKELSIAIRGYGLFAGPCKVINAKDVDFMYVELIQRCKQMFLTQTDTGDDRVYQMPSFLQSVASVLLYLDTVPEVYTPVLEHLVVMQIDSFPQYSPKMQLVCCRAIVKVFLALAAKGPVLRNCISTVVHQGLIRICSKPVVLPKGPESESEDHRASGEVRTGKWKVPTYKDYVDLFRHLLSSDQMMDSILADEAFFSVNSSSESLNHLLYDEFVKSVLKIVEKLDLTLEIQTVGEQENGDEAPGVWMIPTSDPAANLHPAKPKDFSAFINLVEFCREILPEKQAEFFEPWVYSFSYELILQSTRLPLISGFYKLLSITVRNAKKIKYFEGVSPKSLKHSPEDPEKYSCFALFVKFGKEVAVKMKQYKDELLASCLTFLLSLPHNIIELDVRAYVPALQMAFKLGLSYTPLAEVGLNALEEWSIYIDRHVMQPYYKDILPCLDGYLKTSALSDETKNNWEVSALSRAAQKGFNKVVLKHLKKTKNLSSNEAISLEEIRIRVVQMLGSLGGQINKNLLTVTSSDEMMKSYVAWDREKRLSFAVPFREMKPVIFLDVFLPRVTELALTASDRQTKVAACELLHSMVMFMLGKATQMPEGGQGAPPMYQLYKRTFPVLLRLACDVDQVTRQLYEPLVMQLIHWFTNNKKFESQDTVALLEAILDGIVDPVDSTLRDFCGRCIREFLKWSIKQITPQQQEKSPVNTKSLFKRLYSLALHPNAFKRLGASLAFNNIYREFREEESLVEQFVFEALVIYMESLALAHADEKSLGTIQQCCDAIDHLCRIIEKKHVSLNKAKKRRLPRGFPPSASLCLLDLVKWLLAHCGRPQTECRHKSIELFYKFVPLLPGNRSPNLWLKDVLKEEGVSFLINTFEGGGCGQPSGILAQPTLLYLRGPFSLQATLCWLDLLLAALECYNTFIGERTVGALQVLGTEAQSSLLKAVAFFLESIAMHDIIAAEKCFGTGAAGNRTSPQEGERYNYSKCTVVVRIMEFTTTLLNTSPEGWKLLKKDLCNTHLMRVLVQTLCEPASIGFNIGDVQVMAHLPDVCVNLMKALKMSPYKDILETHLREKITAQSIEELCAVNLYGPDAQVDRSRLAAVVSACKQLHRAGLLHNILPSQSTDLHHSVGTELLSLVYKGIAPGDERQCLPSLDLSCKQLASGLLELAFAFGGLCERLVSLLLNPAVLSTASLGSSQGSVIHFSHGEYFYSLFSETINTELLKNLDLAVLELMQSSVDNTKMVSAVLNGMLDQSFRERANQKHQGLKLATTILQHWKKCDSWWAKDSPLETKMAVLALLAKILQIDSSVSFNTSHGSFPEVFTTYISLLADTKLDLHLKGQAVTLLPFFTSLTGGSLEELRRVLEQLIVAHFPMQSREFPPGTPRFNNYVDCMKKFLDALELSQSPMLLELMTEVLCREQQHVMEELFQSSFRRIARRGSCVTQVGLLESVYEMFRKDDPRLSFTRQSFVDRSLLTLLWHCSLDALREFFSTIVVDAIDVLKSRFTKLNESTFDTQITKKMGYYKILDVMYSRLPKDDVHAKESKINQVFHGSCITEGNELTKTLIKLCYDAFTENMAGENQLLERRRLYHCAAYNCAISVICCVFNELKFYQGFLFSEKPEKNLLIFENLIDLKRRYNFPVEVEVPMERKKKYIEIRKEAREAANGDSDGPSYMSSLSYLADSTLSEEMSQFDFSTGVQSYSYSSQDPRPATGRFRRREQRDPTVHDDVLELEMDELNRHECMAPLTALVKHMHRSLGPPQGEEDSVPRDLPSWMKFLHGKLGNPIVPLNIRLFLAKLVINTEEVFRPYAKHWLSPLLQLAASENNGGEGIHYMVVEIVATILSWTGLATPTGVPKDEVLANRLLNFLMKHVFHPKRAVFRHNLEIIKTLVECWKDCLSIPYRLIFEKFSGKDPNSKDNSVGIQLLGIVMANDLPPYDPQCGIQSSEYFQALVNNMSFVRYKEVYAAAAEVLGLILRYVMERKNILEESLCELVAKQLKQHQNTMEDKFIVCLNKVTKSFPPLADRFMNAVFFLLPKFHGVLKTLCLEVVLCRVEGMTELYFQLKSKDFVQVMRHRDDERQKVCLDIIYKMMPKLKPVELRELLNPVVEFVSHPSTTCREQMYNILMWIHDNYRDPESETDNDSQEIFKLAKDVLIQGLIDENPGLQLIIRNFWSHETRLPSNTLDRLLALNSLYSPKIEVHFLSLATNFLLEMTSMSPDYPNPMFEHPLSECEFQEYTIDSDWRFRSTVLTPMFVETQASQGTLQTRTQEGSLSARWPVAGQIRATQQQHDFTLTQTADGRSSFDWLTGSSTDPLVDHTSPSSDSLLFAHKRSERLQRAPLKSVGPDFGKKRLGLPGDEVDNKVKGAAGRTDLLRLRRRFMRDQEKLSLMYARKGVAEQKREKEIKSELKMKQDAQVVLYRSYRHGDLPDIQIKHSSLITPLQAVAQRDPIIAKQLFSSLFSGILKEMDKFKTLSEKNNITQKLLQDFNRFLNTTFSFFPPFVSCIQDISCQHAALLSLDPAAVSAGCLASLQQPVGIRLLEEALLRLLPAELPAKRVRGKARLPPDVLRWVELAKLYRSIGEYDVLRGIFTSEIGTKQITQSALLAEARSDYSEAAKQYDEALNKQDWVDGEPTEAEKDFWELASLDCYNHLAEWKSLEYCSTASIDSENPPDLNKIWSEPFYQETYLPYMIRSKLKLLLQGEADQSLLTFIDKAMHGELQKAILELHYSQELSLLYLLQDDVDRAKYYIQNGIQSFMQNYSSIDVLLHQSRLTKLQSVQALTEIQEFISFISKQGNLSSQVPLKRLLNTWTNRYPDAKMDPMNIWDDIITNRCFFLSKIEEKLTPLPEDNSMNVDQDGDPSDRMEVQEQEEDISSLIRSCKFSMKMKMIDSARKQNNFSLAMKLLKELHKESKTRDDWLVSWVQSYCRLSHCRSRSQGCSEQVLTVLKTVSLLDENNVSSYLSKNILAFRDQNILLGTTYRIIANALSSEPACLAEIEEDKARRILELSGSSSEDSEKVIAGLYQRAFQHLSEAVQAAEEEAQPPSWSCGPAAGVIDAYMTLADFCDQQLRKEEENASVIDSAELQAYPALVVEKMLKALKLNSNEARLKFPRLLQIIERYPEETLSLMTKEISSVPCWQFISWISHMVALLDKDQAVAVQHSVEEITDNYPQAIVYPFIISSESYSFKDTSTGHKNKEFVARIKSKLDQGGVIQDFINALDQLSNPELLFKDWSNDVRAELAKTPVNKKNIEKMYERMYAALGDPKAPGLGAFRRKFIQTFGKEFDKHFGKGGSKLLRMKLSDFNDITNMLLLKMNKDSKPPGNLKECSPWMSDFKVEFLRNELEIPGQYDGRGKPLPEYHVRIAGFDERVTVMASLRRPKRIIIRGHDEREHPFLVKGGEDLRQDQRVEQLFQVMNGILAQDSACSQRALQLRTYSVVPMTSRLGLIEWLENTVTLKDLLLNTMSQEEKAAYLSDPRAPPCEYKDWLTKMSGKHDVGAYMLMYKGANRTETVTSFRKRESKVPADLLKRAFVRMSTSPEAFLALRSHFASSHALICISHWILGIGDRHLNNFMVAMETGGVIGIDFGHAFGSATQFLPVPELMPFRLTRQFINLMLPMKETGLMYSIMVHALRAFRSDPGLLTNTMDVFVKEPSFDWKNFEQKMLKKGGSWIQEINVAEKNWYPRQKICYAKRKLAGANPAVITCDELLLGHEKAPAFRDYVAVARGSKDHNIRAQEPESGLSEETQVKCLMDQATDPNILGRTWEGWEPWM

Experiments:
[1] = target: T1, GST-DEAF1 fusion protein (human) (UniProt O75398)
T1 sequence: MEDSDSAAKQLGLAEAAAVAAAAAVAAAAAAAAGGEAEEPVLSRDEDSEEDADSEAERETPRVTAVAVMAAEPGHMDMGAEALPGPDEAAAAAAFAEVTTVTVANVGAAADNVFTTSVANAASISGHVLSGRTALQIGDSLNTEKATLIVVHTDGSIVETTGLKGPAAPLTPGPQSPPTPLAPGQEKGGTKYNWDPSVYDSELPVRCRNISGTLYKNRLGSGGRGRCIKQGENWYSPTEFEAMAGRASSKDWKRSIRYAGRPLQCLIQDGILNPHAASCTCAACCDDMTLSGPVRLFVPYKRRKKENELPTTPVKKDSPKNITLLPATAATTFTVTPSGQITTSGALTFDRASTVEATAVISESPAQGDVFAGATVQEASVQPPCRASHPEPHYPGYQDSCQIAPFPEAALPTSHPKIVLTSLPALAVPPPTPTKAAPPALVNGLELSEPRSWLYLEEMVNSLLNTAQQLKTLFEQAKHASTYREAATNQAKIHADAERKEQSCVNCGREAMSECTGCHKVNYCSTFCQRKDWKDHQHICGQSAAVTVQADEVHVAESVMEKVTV

[2] = target: T1, GST-DEAF1 fusion protein (human); assay: pull-down; data not shown: GST-DEAF1 pull-downs with human kidney 293T/17 and monkey kidney CV1 cell lysates; banding profiles; only the target purified
[3] = target: T2, DEAF1-FLAG (in CV1 cells) (human) (UniProt O75398); assay: co-IP; CV1 cells transfected with epitope-tagged plasmids; lysates in lysis buffer P incubated with anti-FLAG beads overnight at 4°C; immunoblot with anti-HA or anti-DEAF1 antibody
T2 sequence: T1 sequence

[4] = target: T1, GST-DEAF1 fusion protein (human); assay: pull-down; GST-DEAF1 on glutathione-Sepharose beads incubated overnight with PC-3 cell lysate; Western blot with an antibody to DNA-PKcs; only the target purified
FLAG-Ku70 (in CV1 cells) = FLAG-Ku70 (in CV1 cells) (UniProt P12956); assay: co-IP; CV1 cells transfected with epitope-tagged plasmids; lysates in lysis buffer P incubated with anti-FLAG beads overnight at 4°C; immunoblot with anti-HA or anti-DEAF1 antibody
[5] = target: GST-Ku70 (full-length Ku70) (UniProt P12956)
GST-Ku80 = GST-Ku80 (UniProt P13010)
GST-Ku70 (550–609) = GST-Ku70 (550–609) (UniProt P12956)
GST-Ku70 (396–609) = GST-Ku70 (396–609) (UniProt P12956)
[6] = target: GST-Ku70 (full-length Ku70) (UniProt P12956); remark: listed apart in the source
[7] = target: GST-Ku70 (full-length Ku70) (UniProt P12956); remark: listed apart in the source

Ku70, in vitro translated, [35S]methionine-labeled (from UniProt P12956 1-609)
binding [1]: binds

Ku70 (XRCC6), endogenous in human cell lysates (from UniProt P12956 1-609)
binding [2]: binds

HA-Ku70 (in CV1 cells) (from UniProt P12956 1-609)
binding [3]: binds

DNA-PK catalytic subunit (DNA-PKcs), endogenous in PC-3 lysate (from UniProt P78527 1-4128)
binding [4]: binds

Ku80, in vitro translated, [35S]methionine-labeled (from UniProt P13010 1-732)
binding [1]: no binding

B1: DEAF1 (untagged, expressed in CV1 cells) (protein, UniProt O75398 1-565)
chain: T1 sequence
binding (FLAG-Ku70 (in CV1 cells)): binds

B2: DEAF1, in vitro translated, [35S]methionine-labeled (protein, UniProt O75398 1-565)
chain: T1 sequence
modifications: [35S]methionine-labeled
binding [5]: binds | binding (GST-Ku80): no binding

B3: DEAF1 (167–565), in vitro translated, [35S]methionine-labeled (domain or fragment, UniProt O75398 167-565)
chain: AAPLTPGPQSPPTPLAPGQEKGGTKYNWDPSVYDSELPVRCRNISGTLYKNRLGSGGRGRCIKQGENWYSPTEFEAMAGRASSKDWKRSIRYAGRPLQCLIQDGILNPHAASCTCAACCDDMTLSGPVRLFVPYKRRKKENELPTTPVKKDSPKNITLLPATAATTFTVTPSGQITTSGALTFDRASTVEATAVISESPAQGDVFAGATVQEASVQPPCRASHPEPHYPGYQDSCQIAPFPEAALPTSHPKIVLTSLPALAVPPPTPTKAAPPALVNGLELSEPRSWLYLEEMVNSLLNTAQQLKTLFEQAKHASTYREAATNQAKIHADAERKEQSCVNCGREAMSECTGCHKVNYCSTFCQRKDWKDHQHICGQSAAVTVQADEVHVAESVMEKVTV
modifications: [35S]methionine-labeled
binding (GST-Ku70 (550–609)): binds

B4: DEAF1 (155–326), in vitro translated, [35S]methionine-labeled (domain or fragment, UniProt O75398 155-326)
chain: GSIVETTGLKGPAAPLTPGPQSPPTPLAPGQEKGGTKYNWDPSVYDSELPVRCRNISGTLYKNRLGSGGRGRCIKQGENWYSPTEFEAMAGRASSKDWKRSIRYAGRPLQCLIQDGILNPHAASCTCAACCDDMTLSGPVRLFVPYKRRKKENELPTTPVKKDSPKNITLLP
modifications: [35S]methionine-labeled
binding (GST-Ku70 (396–609)): binds | binding [6]: binds

B5: DEAF1 (198–326), in vitro translated (domain or fragment, UniProt O75398 198-326)
chain: VYDSELPVRCRNISGTLYKNRLGSGGRGRCIKQGENWYSPTEFEAMAGRASSKDWKRSIRYAGRPLQCLIQDGILNPHAASCTCAACCDDMTLSGPVRLFVPYKRRKKENELPTTPVKKDSPKNITLLP
modifications: [35S]methionine-labeled
binding [7]: binds
